This is one part of the list. These are further read-outs of the screen, such as a control signal, another cell line or another target. No call is given for them. Compounds called inactive in the main read-out are mostly missing here. The note in brackets gives the kind of curve behind each potency; many fits are weak.
Assay: qHTS Assay for Lipid Storage Modulators (AID 1519)
Settings: Drosophila S3 cells, BODIPY lipid droplet/cell ratio, laser cytometry; measured here: cell count channel max response; cells loaded with oleic acid
Method in brief: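 Cells seeded at 5,000 per well were treated with compounds over a concentration series and loaded with oleic acid (400 uM, as added). Lipid droplet fluorescence (488 nm excitation, 500-530 nm channel) was read by laser-scanning cytometry and normalized to 20 uM Triacsin C.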
Tags describe the fitted curve by direction and shape.

With CC[N+](CC)(CC)CC(=O)Nc1c(C)cccc1C as the molecule, how does the max response read?
The max response was 55%.

Which max response does the source give for O=c1c(-c2cccs2)nc2cnc(N3CCNCC3)nc2n1Cc1cccs1 here?
Its max response is -59.4%.

For O=C(c1ccncc1)N1CCC[C@@]2(CCN(c3ccccc3)C2)C1, which max response is on record?
Its max response is 34.6%.

With COc1ncc2nc(-c3cccs3)c(=O)n(Cc3ccc(F)cc3)c2n1 as the molecule, how does the max response read?
The max response was 34.6%.

For COc1ccc(C(=O)N2CCC[C@@]3(CCN(C(=O)Nc4cccc(F)c4)C3)C2)cc1, which max response is on record?
Its max response is 33.1%.

For O=c1c(-c2ccc(F)cc2)nc2cnc(Nc3ccccc3)nc2n1C1CC1, which max response is on record?
Its max response is 27.6%.

For Cn1cc(-c2nc3cncnc3n(C3CC3)c2=O)c2ccccc21, which max response is on record?
The max response was 30.4%.

With COc1cc(/C=C\c2ccc(OC)cc2OC)cc(OC)c1 as the molecule, how does the max response read?
Its max response is 85.4%.

With Cn1c(=O)c(CCc2ccccc2)nc2cnc(Oc3ccccc3)nc21 as the molecule, how does the max response read?
Its max response is 16.6%.

With COc1ccc(Oc2ncc3nc(CCc4ccccc4)c(=O)n(CCC#N)c3n2)cc1 as the molecule, how does the max response read?
Its max response is 0.462%.

Which max response does the source give for Cc1cnc(CNc2ccnc(-c3cccc(NS(C)(=O)=O)c3)n2)cn1 here?
Its max response is 31.1%.

With Oc1ccc(/C=C\c2cc(O)cc(O)c2)cc1 as the molecule, how does the max response read?
The max response was 61.9%.

With O=C(c1ccc(F)cc1)C1CCN(CCCCc2ccccc2)CC1 as the molecule, how does the max response read?
Its max response is 72.1%.

For N#CCCn1c(=O)c(CCc2ccccc2)nc2cnc(Oc3ccccc3)nc21, which max response is on record?
The max response was 27.4%.

With COc1cccc(Cn2c(=O)c(C)nc3cnc(N4CCOCC4)nc32)c1 as the molecule, how does the max response read?
Its max response is 30%.

With O=C(Nc1ccccc1)[C@@]12C[C@@H]1/C(=N/O)c1ccccc1O2 as the molecule, how does the max response read?
Its max response is 86.1%.

For COCCn1c(=O)c(CCc2ccccc2)nc2cnc(N3CCNCC3)nc21, which max response is on record?
Its max response is 36.6%.

Which max response does the source give for CN1CCN(c2nc(-c3ccccc3C(F)(F)F)nc3ccccc23)CC1 here?
The max response was 21.9%.

For Cc1noc(C)c1C(=O)N1CCC2(CCCN(C(c3ccccc3)c3ccccc3)C2)CC1, which max response is on record?
Its max response is 12.3%.

Which max response does the source give for CN(C)C(=O)c1ccc(-c2nc(N3CCOCC3)c3ccccc3n2)cc1 here?
Its max response is 18.4%.

With CN(Cc1ccco1)c1cc(-c2ccccc2C(F)(F)F)ncn1 as the molecule, how does the max response read?
Its max response is 33.6%.

With Nc1ncnc2c1nc(Br)n2C1OC(CO)C(O)C1O (stereo not given) as the molecule, how does the max response read?
Its max response is 34.6%.

For CS(=O)(=O)N1CCC2(CC1)CN(c1ncccn1)C2, which max response is on record?
Its max response is 27.9%.

Which max response does the source give for CN(C)c1ncc2nc(CCc3ccccc3)c(=O)n(-c3ccccc3)c2n1 here?
Its max response is 19.4%.

With COc1ccc(Oc2ncc3nc(CCc4ccccc4)c(=O)n(C4CC4)c3n2)cc1 as the molecule, how does the max response read?
The max response was 17.8%.

With CCNc1ncc2nc(-c3ccccc3)c(=O)n(Cc3cccc(OC)c3)c2n1 as the molecule, how does the max response read?
Its max response is 23.9%.

With O=c1c(-c2cc(F)cc(F)c2)nc2cnc(N3CCOCC3)nc2n1Cc1ccc(F)cc1 as the molecule, how does the max response read?
Its max response is 35.4%.

For OC[C@H]1O[C@@H](OC[C@H]2O[C@@H](O)[C@H](O)[C@@H](O)[C@@H]2O)[C@H](O)[C@@H](O)[C@@H]1O, which max response is on record?
Its max response is -29.8%.

Which max response does the source give for COc1ccccc1CNc1ccnc(-c2c(C)noc2C)n1 here?
Its max response is 17.6%.

Which max response does the source give for CN(C)c1ncc2nc(-c3cc(F)cc(F)c3)c(=O)n(CCc3ccccc3)c2n1 here?
The max response was 29.5%.

For CN(C)C(=O)c1ccc(-c2ccc3ncnc(NCCN4CCOCC4)c3c2)cc1, which max response is on record?
The max response was 34.6%.

For CC(C)NC(=O)N1CCCC2(CCN(C(=O)c3csnn3)CC2)C1, which max response is on record?
Its max response is 28.3%.

Which max response does the source give for Cc1ccccc1-c1ccc2ncnc(-n3ccnc3)c2c1 here?
Its max response is 24.3%.

For COc1ccc(CNc2ccnc(-c3cccc(C#N)c3)n2)c(OC)c1, which max response is on record?
Its max response is 10%.

With CNc1ncnc2ccc(-c3cccc(OC)c3)cc12 as the molecule, how does the max response read?
Its max response is -32.2%.

For N#CCCn1c(=O)c(CCc2ccccc2)nc2cnc(Oc3cccc(Cl)c3)nc21, which max response is on record?
Its max response is 10%.

For COc1cc(OC)c2c(OC)c(-c3ccc4c(c3)OCO4)c(=O)oc2c1, which max response is on record?
Its max response is -2.95%.

Which max response does the source give for COc1ccccc1-c1nc(NCCN2CCOCC2)c2ccccc2n1 here?
Its max response is 36.2%.

With COc1ccccc1CNc1ncncc1-c1cccc(NS(C)(=O)=O)c1 as the molecule, how does the max response read?
Its max response is 40.1%.

With CCNc1ncc2nc(-c3cc(F)cc(F)c3)c(=O)n(CCOC)c2n1 as the molecule, how does the max response read?
The max response was 46.5%.

Same assay, conditions: Drosophila S3 cells, BODIPY lipid droplet/cell ratio, laser cytometry; measured here: cell number channel AC50; cells loaded with oleic acid

With CC[N+](CC)(CC)CC(=O)Nc1c(C)cccc1C as the molecule, how does the AC50 read?
The AC50 was 31.6 µM [rising, partial curve, poor fit].

For O=c1c(-c2cccs2)nc2cnc(N3CCNCC3)nc2n1Cc1cccs1, which AC50 is on record?
The AC50 was 39.8 µM [falling, single point].

With O=C(c1ccncc1)N1CCC[C@@]2(CCN(c3ccccc3)C2)C1 as the molecule, how does the AC50 read?
The AC50 was 25.1 µM [rising, single point].

With COc1ncc2nc(-c3cccs3)c(=O)n(Cc3ccc(F)cc3)c2n1 as the molecule, how does the AC50 read?
The AC50 was 0.1 µM [rising, full curve].

Which AC50 does the source give for COc1ccc(C(=O)N2CCC[C@@]3(CCN(C(=O)Nc4cccc(F)c4)C3)C2)cc1 here?
Its AC50 is 3.98 µM [rising, full curve, poor fit].

Which AC50 does the source give for O=c1c(-c2ccc(F)cc2)nc2cnc(Nc3ccccc3)nc2n1C1CC1 here?
The AC50 was 0.0158 µM [rising, full curve, poor fit].

With Cn1cc(-c2nc3cncnc3n(C3CC3)c2=O)c2ccccc21 as the molecule, how does the AC50 read?
Its AC50 is 0.631 µM [rising, full curve, poor fit].

With COc1cc(/C=C\c2ccc(OC)cc2OC)cc(OC)c1 as the molecule, how does the AC50 read?
The AC50 was 4.47 µM [rising, full curve].

Which AC50 does the source give for Cn1c(=O)c(CCc2ccccc2)nc2cnc(Oc3ccccc3)nc21 here?
The AC50 was 1.78 µM [rising, partial curve].

For COc1ccc(Oc2ncc3nc(CCc4ccccc4)c(=O)n(CCC#N)c3n2)cc1, which AC50 is on record?
The AC50 was 3.55 µM [rising, partial curve, poor fit].

For Cc1cnc(CNc2ccnc(-c3cccc(NS(C)(=O)=O)c3)n2)cn1, which AC50 is on record?
Its AC50 is 2.51 µM [rising, full curve, poor fit].

With Oc1ccc(/C=C\c2cc(O)cc(O)c2)cc1 as the molecule, how does the AC50 read?
Its AC50 is 11.2 µM [rising, full curve, poor fit].

With O=C(c1ccc(F)cc1)C1CCN(CCCCc2ccccc2)CC1 as the molecule, how does the AC50 read?
Its AC50 is 12.6 µM [rising, partial curve, poor fit].

Which AC50 does the source give for N#CCCn1c(=O)c(CCc2ccccc2)nc2cnc(Oc3ccccc3)nc21 here?
The AC50 was 0.316 µM [rising, full curve, poor fit].

For COc1cccc(Cn2c(=O)c(C)nc3cnc(N4CCOCC4)nc32)c1, which AC50 is on record?
Its AC50 is 0.316 µM [rising, full curve, poor fit].

Which AC50 does the source give for O=C(Nc1ccccc1)[C@@]12C[C@@H]1/C(=N/O)c1ccccc1O2 here?
The AC50 was 7.08 µM [rising, partial curve].

Which AC50 does the source give for COCCn1c(=O)c(CCc2ccccc2)nc2cnc(N3CCNCC3)nc21 here?
Its AC50 is 2 µM [rising, full curve].

With CN1CCN(c2nc(-c3ccccc3C(F)(F)F)nc3ccccc23)CC1 as the molecule, how does the AC50 read?
The AC50 was 3.98 µM [rising, full curve, poor fit].

Which AC50 does the source give for Cc1noc(C)c1C(=O)N1CCC2(CCCN(C(c3ccccc3)c3ccccc3)C2)CC1 here?
Its AC50 is 0.0158 µM [rising, full curve, poor fit].

For CN(C)C(=O)c1ccc(-c2nc(N3CCOCC3)c3ccccc3n2)cc1, which AC50 is on record?
Its AC50 is 3.55 µM [rising, full curve, poor fit].

Which AC50 does the source give for CN(Cc1ccco1)c1cc(-c2ccccc2C(F)(F)F)ncn1 here?
Its AC50 is 6.31 µM [rising, full curve].

Which AC50 does the source give for Nc1ncnc2c1nc(Br)n2C1OC(CO)C(O)C1O (stereo not given) here?
Its AC50 is 31.6 µM [rising, partial curve, poor fit].

Which AC50 does the source give for CS(=O)(=O)N1CCC2(CC1)CN(c1ncccn1)C2 here?
Its AC50 is 1.78 µM [rising, full curve, poor fit].

Which AC50 does the source give for CN(C)c1ncc2nc(CCc3ccccc3)c(=O)n(-c3ccccc3)c2n1 here?
The AC50 was 2.82 µM [rising, partial curve].

For COc1ccc(Oc2ncc3nc(CCc4ccccc4)c(=O)n(C4CC4)c3n2)cc1, which AC50 is on record?
The AC50 was 3.16 µM [rising, partial curve].

Which AC50 does the source give for CCNc1ncc2nc(-c3ccccc3)c(=O)n(Cc3cccc(OC)c3)c2n1 here?
The AC50 was 1 µM [rising, full curve, poor fit].

For O=c1c(-c2cc(F)cc(F)c2)nc2cnc(N3CCOCC3)nc2n1Cc1ccc(F)cc1, which AC50 is on record?
Its AC50 is 5.01 µM [rising, partial curve].

For OC[C@H]1O[C@@H](OC[C@H]2O[C@@H](O)[C@H](O)[C@@H](O)[C@@H]2O)[C@H](O)[C@@H](O)[C@@H]1O, which AC50 is on record?
The AC50 was 15.8 µM [rising, single point].

With COc1ccccc1CNc1ccnc(-c2c(C)noc2C)n1 as the molecule, how does the AC50 read?
The AC50 was 0.631 µM [rising, partial curve].

For CN(C)c1ncc2nc(-c3cc(F)cc(F)c3)c(=O)n(CCc3ccccc3)c2n1, which AC50 is on record?
Its AC50 is 0.631 µM [rising, full curve, poor fit].

With CN(C)C(=O)c1ccc(-c2ccc3ncnc(NCCN4CCOCC4)c3c2)cc1 as the molecule, how does the AC50 read?
The AC50 was 5.62 µM [rising, full curve].

With CC(C)NC(=O)N1CCCC2(CCN(C(=O)c3csnn3)CC2)C1 as the molecule, how does the AC50 read?
The AC50 was 0.00501 µM [rising, full curve, poor fit].

Which AC50 does the source give for Cc1ccccc1-c1ccc2ncnc(-n3ccnc3)c2c1 here?
The AC50 was 0.631 µM [rising, full curve, poor fit].

Which AC50 does the source give for COc1ccc(CNc2ccnc(-c3cccc(C#N)c3)n2)c(OC)c1 here?
The AC50 was 3.98 µM [rising, partial curve].

For CNc1ncnc2ccc(-c3cccc(OC)c3)cc12, which AC50 is on record?
Its AC50 is 39.8 µM [falling, single point].

For N#CCCn1c(=O)c(CCc2ccccc2)nc2cnc(Oc3cccc(Cl)c3)nc21, which AC50 is on record?
The AC50 was 0.708 µM [rising, partial curve].

With COc1cc(OC)c2c(OC)c(-c3ccc4c(c3)OCO4)c(=O)oc2c1 as the molecule, how does the AC50 read?
Its AC50 is 0.355 µM [rising, full curve, poor fit].

Which AC50 does the source give for COc1ccccc1-c1nc(NCCN2CCOCC2)c2ccccc2n1 here?
Its AC50 is 2.82 µM [rising, full curve].

For COc1ccccc1CNc1ncncc1-c1cccc(NS(C)(=O)=O)c1, which AC50 is on record?
Its AC50 is 8.91 µM [rising, full curve].

With CCNc1ncc2nc(-c3cc(F)cc(F)c3)c(=O)n(CCOC)c2n1 as the molecule, how does the AC50 read?
The AC50 was 0.316 µM [rising, full curve].

Source: PubChem BioAssay (NCATS)
